{"source": "patent US20260021059A1", "about": "“THERAPEUTIC COMBINATIONS AND METHODS” (RUTGERS, THE STATE UNIVERSITY OF NEW JERSEY, priority 2022, published 2026)", "test_system": "rats", "experiment": "Palatable food intake (binge-like eating) of a fat/sucrose mixture during 30 min exposure periods", "type": "in vivo", "details": "d-amphetamine alone, i.p.", "method": "Rats were trained to consume a palatable fat mixture (90% vegetable shortening, 10% sucrose) during brief exposure periods (30 mins) that occurred twice per week. The amount of palatable food consumed during these 30 min exposure periods was measured."}
{"molecule": "C[C@H](N)Cc1ccccc1", "note": "[d-amphetamine]", "values": [{"measurement": "dose necessary to suppress palatable food intake when administered alone", "value": 0.75, "unit": "mg/kg"}]}
